In US20050221443A1 (published 2005):

T1: TACI (UniProt O14836 2-166, limits assumed)
T1 sequence (looked up): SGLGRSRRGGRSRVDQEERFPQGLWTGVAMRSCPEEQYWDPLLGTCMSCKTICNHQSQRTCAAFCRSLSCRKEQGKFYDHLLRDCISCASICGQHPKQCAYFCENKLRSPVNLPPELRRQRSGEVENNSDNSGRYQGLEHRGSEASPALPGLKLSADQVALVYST

T2: BCMA (UniProt Q02223 1-54, limits assumed)
T2 sequence (looked up): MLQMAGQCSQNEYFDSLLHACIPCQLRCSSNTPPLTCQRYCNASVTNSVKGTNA

T3: BAFFR (UniProt Q96RJ3 7-71, limits assumed)
T3 sequence (looked up): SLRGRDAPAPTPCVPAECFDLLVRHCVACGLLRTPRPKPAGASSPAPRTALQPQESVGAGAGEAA

B1: BAFF variant Y163D (ligand)
chain: not shown
notes: extracellular domain
B2: BAFF variant A207T (ligand)
chain: not shown
notes: extracellular domain
B3: BAFF variant D273A (ligand)
chain: not shown
notes: extracellular domain
B4: BAFF variant D273E (ligand)
chain: not shown
notes: extracellular domain
B5: BAFF variant D273H (ligand)
chain: not shown
notes: extracellular domain
B6: BAFF variant D273N (ligand)
chain: not shown
notes: extracellular domain
B7: BAFF variant D273R (ligand)
chain: not shown
notes: extracellular domain
B8: BAFF variant E238K (ligand)
chain: not shown
notes: extracellular domain
B9: BAFF variant E238Q (ligand)
chain: not shown
notes: extracellular domain
B10: BAFF variant E266I (ligand)
chain: not shown
notes: extracellular domain
B11: BAFF variant E266K (ligand)
chain: not shown
notes: extracellular domain
B12: BAFF variant E266L (ligand)
chain: not shown
notes: extracellular domain
B13: BAFF variant E266R (ligand)
chain: not shown
notes: extracellular domain
B14: BAFF variant E266T (ligand)
chain: not shown
notes: extracellular domain
B15: BAFF variant I233V (ligand)
chain: not shown
notes: extracellular domain
B16: BAFF variant L211E (ligand)
chain: not shown
notes: extracellular domain
B17: BAFF variant L211V (ligand)
chain: not shown
notes: extracellular domain
B18: BAFF variant L240F (ligand)
chain: not shown
notes: extracellular domain
B19: BAFF variant L240N (ligand)
chain: not shown
notes: extracellular domain
B20: BAFF variant L240Q (ligand)
chain: not shown
notes: extracellular domain
B21: BAFF variant L240R (ligand)
chain: not shown
notes: extracellular domain
B22: BAFF variant L240Y (ligand)
chain: not shown
notes: extracellular domain
B23: BAFF variant N242A (ligand)
chain: not shown
notes: extracellular domain
B24: BAFF variant N242Y (ligand)
chain: not shown
notes: extracellular domain
B25: BAFF variant N267R (ligand)
chain: not shown
notes: extracellular domain
B26: BAFF variant Q159K (ligand)
chain: not shown
notes: extracellular domain
B27: BAFF variant Q159R (ligand)
chain: not shown
notes: extracellular domain
B28: BAFF variant Q269E (ligand)
chain: not shown
notes: extracellular domain
B29: BAFF variant Q269H (ligand)
chain: not shown
notes: extracellular domain
B30: BAFF variant Q269K (ligand)
chain: not shown
notes: extracellular domain
B31: BAFF variant S162D (ligand)
chain: not shown
notes: extracellular domain
B32: BAFF variant S162L (ligand)
chain: not shown
notes: extracellular domain
B33: BAFF variant S162N (ligand)
chain: not shown
notes: extracellular domain
B34: BAFF variant T205I (ligand)
chain: not shown
notes: extracellular domain
B35: BAFF variant Y163F (ligand)
chain: not shown
notes: extracellular domain
B36: BAFF variant Y163I (ligand)
chain: not shown
notes: extracellular domain
B37: BAFF variant Y163L (ligand)
chain: not shown
notes: extracellular domain
B38: BAFF variant Y163T (ligand)
chain: not shown
notes: extracellular domain
B39: BAFF variant Y206F (ligand)
chain: not shown
notes: extracellular domain

Columns and labels:
Test in all cases: Kd ratio to wild-type BAFF; method not stated
TACI = molecular target: T1, TACI
BCMA = molecular target: T2, BCMA
BAFFR = molecular target: T3, BAFFR

Binder | Kd (var/wt) (TACI) | Kd (var/wt) (BCMA) | Kd (var/wt) (BAFFR)
B1 | 0.76 ratio variant/wild-type | 0.19 ratio variant/wild-type | 0.69 ratio variant/wild-type
B2 | 0.5 ratio variant/wild-type | 0.61 ratio variant/wild-type | 0.72 ratio variant/wild-type
B3 | 0.72 ratio variant/wild-type | 0.22 ratio variant/wild-type | 0.79 ratio variant/wild-type
B4 | 0.67 ratio variant/wild-type | 0.85 ratio variant/wild-type | 0.81 ratio variant/wild-type
B5 | 1 ratio variant/wild-type | 0.38 ratio variant/wild-type | 0.9 ratio variant/wild-type
B6 | 0.71 ratio variant/wild-type | 0.43 ratio variant/wild-type | 0.62 ratio variant/wild-type
B7 | 0.69 ratio variant/wild-type | 0.23 ratio variant/wild-type | 1 ratio variant/wild-type
B8 | 0.09 ratio variant/wild-type | 0.38 ratio variant/wild-type | 0.18 ratio variant/wild-type
B9 | 0.36 ratio variant/wild-type | 0.47 ratio variant/wild-type | 0.34 ratio variant/wild-type
B10 | 0.81 ratio variant/wild-type | 9.5 ratio variant/wild-type | 0.49 ratio variant/wild-type
B11 | 0.3 ratio variant/wild-type | 60 ratio variant/wild-type | 0.81 ratio variant/wild-type
B12 | 1.1 ratio variant/wild-type | 10 ratio variant/wild-type | 0.48 ratio variant/wild-type
B13 | 0.48 ratio variant/wild-type | 7.3 ratio variant/wild-type | 1.1 ratio variant/wild-type
B14 | – | 7.4 ratio variant/wild-type | 0.45 ratio variant/wild-type
B15 | 0.28 ratio variant/wild-type | 0.25 ratio variant/wild-type | 0.26 ratio variant/wild-type
B16 | 0.32 ratio variant/wild-type | 3 ratio variant/wild-type | 0.3 ratio variant/wild-type
B17 | 0.32 ratio variant/wild-type | 0.12 ratio variant/wild-type | 0.31 ratio variant/wild-type
B18 | 0.33 ratio variant/wild-type | 0.07 ratio variant/wild-type | 0.13 ratio variant/wild-type
B19 | 0.59 ratio variant/wild-type | 3.7 ratio variant/wild-type | 0.24 ratio variant/wild-type
B20 | 0.79 ratio variant/wild-type | 1.3 ratio variant/wild-type | 0.56 ratio variant/wild-type

Binder | Kd (var/wt) (TACI) | Kd (var/wt) (BCMA) | Kd (var/wt) (BAFFR)
B21 | 0.43 ratio variant/wild-type | 2.9 ratio variant/wild-type | 0.19 ratio variant/wild-type
B22 | 0.22 ratio variant/wild-type | 0.1 ratio variant/wild-type | 0.19 ratio variant/wild-type
B23 | 0.32 ratio variant/wild-type | 0.13 ratio variant/wild-type | 0.4 ratio variant/wild-type
B24 | 0.73 ratio variant/wild-type | 0.36 ratio variant/wild-type | 0.72 ratio variant/wild-type
B25 | 1 ratio variant/wild-type | 1.3 ratio variant/wild-type | 0.67 ratio variant/wild-type
B26 | 0.79 ratio variant/wild-type | 0.51 ratio variant/wild-type | 0.82 ratio variant/wild-type
B27 | 0.42 ratio variant/wild-type | 0.29 ratio variant/wild-type | 0.44 ratio variant/wild-type
B28 | 0.65 ratio variant/wild-type | 1.13 ratio variant/wild-type | 0.42 ratio variant/wild-type
B29 | 0.8 ratio variant/wild-type | 1.5 ratio variant/wild-type | 1 ratio variant/wild-type
B30 | 0.62 ratio variant/wild-type | 0.73 ratio variant/wild-type | 0.44 ratio variant/wild-type
B31 | 0.28 ratio variant/wild-type | 0.13 ratio variant/wild-type | 0.33 ratio variant/wild-type
B32 | 0.56 ratio variant/wild-type | 0.87 ratio variant/wild-type | 0.62 ratio variant/wild-type
B33 | 0.5 ratio variant/wild-type | 0.87 ratio variant/wild-type | 0.39 ratio variant/wild-type
B34 | 0.58 ratio variant/wild-type | 1.9 ratio variant/wild-type | 0.53 ratio variant/wild-type
B35 | 0.26 ratio variant/wild-type | 0.41 ratio variant/wild-type | 0.29 ratio variant/wild-type
B36 | 0.28 ratio variant/wild-type | 0.18 ratio variant/wild-type | 0.23 ratio variant/wild-type
B37 | 0.31 ratio variant/wild-type | 0.25 ratio variant/wild-type | 0.27 ratio variant/wild-type
B38 | 0.26 ratio variant/wild-type | 0.17 ratio variant/wild-type | 0.25 ratio variant/wild-type
B39 | 0.64 ratio variant/wild-type | 0.19 ratio variant/wild-type | 1 ratio variant/wild-type
